# From PubChem BioAssay AID463173 (ICCB-Longwood Screening Facility, Harvard Medical School, 2010)
# Screen size: about 52,000 compounds; about 1,700 (3.3%) were called active. No stated cut-off is given here; in the data, active means survival mostly below about 52% (no sharp cut-off); inactive means mostly above about 56%. The list shows a part of the results.
# System: Wild type
# Experiment: S. aureus survival, RN4220 and DeltatarO strains – OD600, teichoic acid synthesis inhibitors, primary screen (AID 463173)
# Conditions: S. aureus RN4220 wild type/DeltatarO growth, OD600, 18 h, hits give low values, screened at 18.75 µg/mL (by protocol)
row,SMILES,survival
1,CC1CN(C(C)(C)C)CCC1(O)c1ccccc1 (configuration not stated),inactive: 108%
2,COc1ccccc1-c1c(C)nn2c(-c3ccccc3)cc(-c3ccccc3)nc12,inactive: 77%
3,CCOc1ccc(C2=NC(c3ccncc3)=Nc3ccc(C)cc3N2)cc1OCC,inactive: 119%
4,COCc1cc(C)nc2sc(C(=O)Nc3ccccc3O)c(N)c12,inactive: 93%
5,Cc1ccc(OCCn2cc(C(=O)c3cccs3)c3ccccc32)cc1,inactive: 73%
6,COc1ccc(C2CC(=O)c3c([nH]c(C(=O)OCc4ccccc4)c3C)C2)cc1 (configuration not stated),inactive: 90%
7,Cc1ccccc1NC(=O)c1cc2c(-c3ccccc3)nn(-c3ccccc3)c2s1,inactive: 86%
8,Cc1cc(C)nc(N(C#N)CCOc2ccc(Cl)cc2)n1,inactive: 109%
9,COc1ccc(N(Cc2ccccc2)C(=O)c2nc(S(C)(=O)=O)ncc2Cl)cc1,inactive: 61%
10,COc1ccccc1NC(=O)C1=C(C)Nc2c(C(=O)Nc3ccc(C)cc3)cnn2C1c1cccc(OC)c1OC (configuration not stated),active: 14%
11,COc1ccc(CNC(=O)Cn2c(=O)nc(-c3ccccc3)c3cc(Cl)ccc32)cc1OC,inactive: 68%
12,CCCSCCCNC(=O)C1CCN(C(=O)c2cnn(-c3ccccc3)c2-n2cccc2)CC1,inactive: 102%
13,COc1cccc(C(=O)Nc2ccc(-n3nncc3-c3ccccc3)cc2)c1OC,inactive: 113%
14,Cc1cccc(N2CCN(C(=O)Cn3nc(C)c4sc5ccccc5c4c3=O)CC2)c1C,inactive: 66%
15,CCc1ccc(NCc2cc3ccc(OC)cc3n(CC(=O)Nc3ccccc3C)c2=O)cc1,inactive: 84%
16,CS(=O)(=O)c1ccc2nc(NC(=O)CN3C(=O)c4ccccc4C3=O)sc2c1,inactive: 106%
17,COc1ccc(NC(=O)CSc2nc(-c3cccs3)cc(C(F)(F)F)n2)cc1Cl,inactive: 64%
18,CCc1ccccc1S(=O)(=O)Cc1ccc(C(=O)NCc2ccc(Cl)cc2)o1,inactive: 76%
19,COC(=O)c1ccc(Cl)cc1NC(=O)Nc1nnc(N(C)C2CCCCC2)s1,inactive: 84%
20,COc1ccc(CCC(=O)NCc2ccc3c(c2)CCN3C(=O)c2ccc(Cl)cc2)cc1,inactive: 80%
21,Cc1ccc(CNC(=O)C(NS(=O)(=O)c2cccs2)C(C)C)cc1 (configuration not stated),inactive: 78%
22,Cc1ccc(CSC2=Nc3ccccc3C3=NC(CCC(=O)NC4CCCCC4)C(=O)N23)cc1 (configuration not stated),inactive: 128%

row,SMILES,survival
1,Cc1ccc(/C(C#N)=C\c2ccco2)cc1,inactive: 118%
2,CCc1c(C)sc2c1CCN(Cc1cccc(OC)c1)C2c1ccccc1 (configuration not stated),inactive: 47%
3,CCc1ccc(C(=O)CC2(O)C(=O)N(CCc3ccccc3)c3ccc(Br)cc32)cc1 (configuration not stated),inactive: 36%
4,CCCCN(CCCC)CCNC(=O)Cn1nc(CC)n2c(cc3sccc32)c1=O,inactive: 89%
5,CCC1=Nc2cc(C(=O)NCCc3ccc(OC)c(OC)c3)ccc2Sc2ccccc21,inactive: 77%
6,O=C1S/C(=C/c2ccccc2)C(=O)N1c1ccccc1,inactive: 101%
7,CC(=O)c1cccc(NC(=O)CSc2nc3c(c(=O)[nH]2)CCC3)c1,inactive: 82%
8,c1ccc(CN2CCN(c3nc(N4CCOCC4)c4ccccc4n3)CC2)cc1,inactive: 102%
9,COc1ccc(-n2nc3ccc(NC(=O)c4c(OC)cccc4OC)cc3n2)cc1,inactive: 137%
10,O=C(Cn1c(=O)n(-c2ccc(F)cc2)c(=O)c2sc3ccccc3c21)NC1CCCC1,inactive: 88%
11,CCc1ccc2oc(C(=O)Nc3ccccc3OC)cc(=O)c2c1,inactive: 85%
12,CCC1CCCCN1S(=O)(=O)c1ccc(S(=O)(=O)n2cnc3cc(C)c(C)cc32)cc1 (configuration not stated),inactive: 101%
13,CC(OC(=O)C1=Cc2ccccc2OC1)C(=O)NCC1CCCO1 (configuration not stated),inactive: 108%
14,CCc1nc2ccccc2n2c(-c3ccc(C)cc3)c3c(=O)n(C)c(=O)n(C)c3c12,inactive: 75%
15,Fc1ccc(Nc2nc(SCc3ccccc3Cl)nc3ccccc23)cc1,inactive: 45%
16,Cc1cc(C)cc(NC(=O)C2CCCN(S(=O)(=O)c3cccc4nsnc34)C2)c1 (configuration not stated),inactive: 124%
17,Cc1cccc(N2CCN(C(c3ccccc3)c3nnc(-c4ccccc4F)o3)CC2)c1C (configuration not stated),inactive: 43%
18,CCOC(=O)c1c(C)[nH]c(C)c1S(=O)(=O)NCC(=O)Nc1ccc(C)cc1C,inactive: 64%
19,COc1ccc(CSc2nc3ccncc3n2CC(=O)Nc2cc(C)cc(C)c2)cc1,inactive: 81%
20,Cc1csc2nc(COC(=O)CNC(=O)c3ccc(F)cc3)cc(=O)n12,inactive: 74%
21,NC(=O)C1CCN(C(=O)c2ccc3c(c2)N(Cc2cccc(Cl)c2)C(=O)c2ccccc2S3=O)CC1 (configuration not stated),inactive: 79%
22,CCOc1ccccc1NC(=O)C1CCC(CNS(=O)(=O)c2ccc3c(c2)CCCC(=O)N3)CC1 (configuration not stated),inactive: 70%

row,SMILES,survival
1,Cc1ccc(C(=O)Nc2ccccc2C(=O)OCc2cc(=O)n3nc(C(C)C)sc3n2)cc1,inactive: 80%
2,COc1ccc(CC(=O)NCCS(=O)(=O)N2CCN(c3ccccc3F)CC2)cc1OC,inactive: 66%
3,Cc1ccc(Cl)cc1N1CCN(CCCNC(=O)Cn2ncc3c([nH]c4ccccc43)c2=O)CC1,inactive: 99%
4,Cc1ccc(C)c(NC(=O)CN(C)S(=O)(=O)c2cccc3cccnc23)c1,inactive: 85%
5,Cc1ccc(C)c(NC(=O)CSc2nc(-c3ccccc3)c(C#N)c(=O)[nH]2)c1,inactive: 113%
6,O=C(CC1N=C2c3ccccc3N=C(SCc3ccc(F)cc3)N2C1=O)NC1CCCCC1 (configuration not stated),inactive: 146%
7,Cc1cccc(NC(=O)Cn2c(=O)n(Cc3ccccc3)c(=O)c3sc4ccccc4c32)c1,inactive: 133%
8,CCOc1ccc(N(C(=O)c2ccc(Cl)cc2)S(=O)(=O)c2ccc3c(c2)n(C)c(=O)n3C)cc1,inactive: 81%
9,CCOc1ccc(CCNC(=O)c2cccc(Nc3nc4ccccc4nc3-n3nc(C)cc3C)c2)cc1OCC,inactive: 94%
10,Cc1ccc(CNc2nc3ccc(Cl)cc3n3cnnc23)cc1,inactive: 93%
11,COC(=O)c1ccccc1NC(=O)C1=CC(c2ccc3c(c2)OCO3)=NS(=O)(=O)N1C,inactive: 85%
12,COc1ccc(S(=O)(=O)c2c(Nc3c(C)cccc3C)sc(C(=O)c3ccc(F)cc3)c2N)cc1,inactive: 120%
13,CCc1cccc(C)c1Nc1c(-c2ccc(SC)cc2)nc2sccn12,inactive: 83%
14,COc1ccc(CC(=O)N2N=C(c3ccncc3)CC2(O)C(F)(F)F)cc1 (configuration not stated),inactive: 105%
15,Cc1cccc(-c2nc(CCNC(=O)COc3ccccc3)cs2)c1,inactive: 73%
16,Cc1ccc(CN(Cc2ccco2)C(=O)c2ccc(Cl)cc2Cl)cc1,inactive: 84%
17,Cc1cccc(NC(=O)CSc2ncc(-c3ccc(Br)cc3)[nH]2)c1,inactive: 147%
18,O=C(CSc1ccc(-c2cccs2)nn1)Nc1ccccc1,inactive: 86%
19,COc1cccc(CNc2nc3ccccc3c3nc(-c4cccc(C)c4)nn23)c1,inactive: 31%
20,CC(=O)c1cccc(NC(=O)Nc2c(C)n(C)n(-c3ccccc3)c2=O)c1,inactive: 121%
21,COc1ccc(-c2cc(-c3ccccc3)nc(SCC(=O)Nc3ccccc3C)c2C#N)cc1,inactive: 70%
22,CCN1CCc2c(sc(NC(=O)c3ccc(S(=O)(=O)N(CCOC)CCOC)cc3)c2C(N)=O)C1,inactive: 68%

row,SMILES,survival
1,Cc1ccc(-c2nc3cc(NC(=O)c4cc5ccccc5o4)ccc3o2)cc1Cl,inactive: 137%
2,O=C(c1ccc(Cl)cc1)N1CCCC1,inactive: 102%
3,CCOCCCn1c(SCC(=O)Nc2cc(C)ccc2C)nc2c(oc3ccccc32)c1=O,inactive: 83%
4,COC(=O)c1ccc(NC(=O)CN2CCCN(Cc3ccc(Cl)cc3)S2(=O)=O)cc1,inactive: 110%
5,Cc1ccc(Sc2c(C(=O)NCc3cccc(F)c3)[nH]c3ccccc23)cc1,inactive: 89%
6,CC(C)Oc1ccc(CN2CCc3nc(Nc4ccc5c(c4)OCCO5)ncc3C2)cc1,inactive: 85%
7,CCn1c(CSc2ncccn2)nnc1SCC(=O)N1CCCCC1,inactive: 99%
8,CC(NC(=O)CN1C(=O)COc2ccc(S(=O)(=O)N3CCCCCC3)cc21)c1ccccc1 (configuration not stated),inactive: 75%
9,CN(C)CCNC(=O)c1ccc(-n2c(-c3ccccc3)cc3c2CCCCC3)cc1,inactive: 17%
10,COc1ccc(N2CCN(C(=O)CNC3CC3)CC2)cc1,inactive: 98%
11,O=C(COc1ccc(Cl)cc1)N(Cc1ccco1)Cc1ccco1,inactive: 74%
12,COc1ccc(OC)c(NC(=O)CSC2=Nc3ccccc3C3=NC(CCC(=O)NCc4ccccc4)C(=O)N23)c1 (configuration not stated),active: -3%
13,Cc1nc2ccn(Cc3cccs3)c(=O)c2cc1C(=O)NCc1ccc(Br)cc1,inactive: 82%
14,COc1ccccc1CNC(=O)CCC(=O)N1CC(C)Sc2ccccc21 (configuration not stated),inactive: 105%
15,Cc1c(C(=O)N(C)C)sc2c1c(=O)n(-c1ccc(Cl)c(Cl)c1)c(=O)n2CC(=O)C(C)(C)C,inactive: 74%
16,COc1ccc(C(=O)Nc2cccc(-c3cn4ccsc4n3)c2)c(OC)c1,inactive: 81%
17,O=S(=O)(Nc1cccc(C(F)(F)F)c1)c1ccc(NS(=O)(=O)c2ccc3c(c2)OCCO3)cc1,inactive: 30%
18,Cc1cccc(N2CCN(C(=O)CN3C(=O)COc4ccc(S(=O)(=O)N5CCC(C)CC5)cc43)CC2)c1C,inactive: 73%
19,Cc1csc2nc(COC(=O)c3cccc(NC(=O)c4cccc(Cl)c4)c3)cc(=O)n12,active: -1%
20,CCc1nn(CC(=O)N2CCC(C)CC2)c(=O)c2cc3occc3n12,inactive: 127%
21,CCCN(c1ccc(C(C)C)cc1)S(=O)(=O)c1ccc2c(c1)n(C)c(=O)c(=O)n2C,inactive: 90%
